Experimental data: PubChem BioAssay AID686978 (National Center for Advancing Translational Sciences (NCATS), 2013)
About 64,000 (15%) of roughly 420,000 compounds were called active. The inconclusive results got no clear call from the source; some entries with a clear call stand among them for comparison. Calls come from the whole dose curve; as a rule, active = well fitted inhibition curve with a large enough effect; inconclusive = small, poorly fitted or top-dose-only effect; inactive = flat fitted curve, though single readings scatter. Potencies of inconclusive entries are left out as doubtful fits.

assay: qHTS for Inhibitors of human tyrosyl-DNA phosphodiesterase 1 (TDP1): qHTS in cells in absence of CPT; conditions: DT40 Tdp1-/- hTDP1 cells, no CPT, ATP luminescence, 48 h; activity change, negative = growth inhibition: at 46.2 µM (top of the series) unless noted; note: nearly all actives have a fitted effect of over 55% in size
Outline: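 Compound effects on proliferation are scored in DT40 Tdp1-/-;hTDP1 cells in the absence of CPT. ATP levels (CellTiter-Glo luminescence) are recorded after a ≥48 hr, 37 °C incubation.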
% is set by controls: 0 for no effect and ±100 for the full control effect; potency is the fitted concentration of half-maximal effect; tags give direction and shape of the fitted curve.

| SMILES | Potency | activity change, negative = growth inhibition |
| --- | --- | --- |
| Cc1ccc(Cl)cc1N1CCN(C(=O)c2ccccc2SCC(=O)N2CCCC2)CC1 | active: 8.2 µM |  |
| CCCCn1c(N)c(C(=S)NC(=O)CC(C)(C)C)c(=O)n(C)c1=O | inconclusive [inhibitor, single point] |  |
| O=S(=O)(NCCc1csc2nc(-c3ccccc3)nn12)c1ccc(Cl)s1 | inconclusive [inhibitor, single point] |  |
| CCOC(=O)Cc1csc(NC(=O)COc2cc(C)cc(C)c2)n1 |  | inconclusive: -26.8% [inhibitor] |
| COc1ccc2c(CNC3CCCCCC3)c(C(=O)O)n(Cc3cccc(F)c3)c2c1 | inconclusive [inhibitor, single point] |  |
| CCOC(=O)N1CCC(NC(=O)CCC(=O)N2CC(C)Oc3ccc(Cl)cc32)CC1 (stereo not drawn) | inconclusive [inhibitor, single point] |  |
| CC(=O)Nc1ccc(SCC(=O)c2ccc(Br)s2)cc1 | inconclusive [inhibitor, single point] |  |
| CC(C)c1ccc(NC(=O)CSC(C)c2nc3ccccc3c(=O)[nH]2)cc1 (stereo not drawn) | inconclusive [inhibitor, single point] |  |
| O=C(NCc1csc(-c2cccs2)n1)c1ccsc1 | inconclusive [inhibitor, partial curve, poor fit] |  |
| CN(C)c1ncnc2c1NC1=C(S2)C(=NCCCC(=O)O)CC(C)(C)C1 | inconclusive [inhibitor, single point] |  |
| O=C(O)CCn1c(SCc2cccc3ccccc23)nc2ccccc21 |  | inactive: -19.6% |
| Cc1cc(C)cc(NC(=O)CSc2nnc(-c3cc4occc4n3C)n2-c2ccccc2C)c1 | inconclusive [inhibitor, single point] |  |
| O=S(=O)(O)c1ccc2nc(-c3ccccc3)[nH]c2c1 | inconclusive [inhibitor, single point] |  |
| CCN(CC)CCNC(=O)c1ccc(Cl)c(S(=O)(=O)N2CCCCCC2)c1 | inconclusive [inhibitor, single point] |  |
| CCOc1ccc(-n2c(-c3ccccc3)c[nH]c2=S)cc1 | inconclusive [inhibitor, single point] |  |
| COc1ccc(-c2cc3ncc(-c4ccccc4)c(N)n3n2)cc1 | inconclusive [inhibitor, single point] |  |
| CC(=O)Oc1ccc(/C=C2\N=C(C3CCCCC3)OC2=O)cc1 |  | inconclusive: -31.4% [inhibitor] |
| CCOC(=O)C1(c2ccccc2)SC(C(=O)OCC)(c2ccccc2)S1 (stereo not drawn) | inconclusive [inhibitor, single point] |  |
